The values below come from the supplement of paper PMC11417369.

Some of the results follow.

This experiment relates to PfSIP2 AP2 domain 1 (GST-tagged). Put plainly: gcPBM binding intensity (ln(normalized median fluorescence intensity)); higher = stronger DNA binding. Summed up:
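Binding intensity is the highest Masliner-normalised natural-log median intensity over replicate spots in either probe orientation. To obtain it, GST-tagged P. falciparum DNA-binding domains made in E. coli were incubated for 1 h on an Agilent 4 × 180k array of primer-extended double-stranded 36-bp intergenic genomic probes plus negative controls. Detection used Alexa488 anti-GST antibody with scanning at 488 nm.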
For the sequence “AGGCTGCCATATTATACACACATTTTTAAAAAAATT [CACACA_site3843]”, the “gcPBM binding intensity (ln)” value is 6.82. “AAATATTACCATGTGAAAATTTTACTGCAACATGAA [TGCATGCA_negctrl_site609]”: the “gcPBM binding intensity (ln)” value stood at 6.97. For “ATATTAAACAGACACACACACATATATTTATTTATA [CACACA_site7564]” the value was 6.98; for “TATAGCATATCTCACACACACATAATGAATATTATA [CACACA_site5877]”, 7.03; for “AAAATGAACTCACGAGCACACACACCCATATATATA [CACACA_site8247]”, 7.68. For “TGTATTATATAAAATTGTACATGCGAATTGTATAAC [XGTACX_site902]” the value was 7.22; for “TATAGCTATGTATTCACACATAATATAAACTTTAAT [CACACA_site5889]”, 6.84; for “AAAGGATGTAATATAAACATATATATGTATATATAT [TGCATGCA_negctrl_site347]”, 7.42. For “ATAAAATGAAATATATATGTGTATGCTTAACTTGTT [CACACA_negctrl_site431]” the value was 6.73; for “TAATTTTTTTTAATAACACACATATATATATATATA [CACACA_site813]”, 9.64. Regarding “ATTGTTTTATATAGAACACACATAAAAATATATATG [CACACA_site1193]”, the “gcPBM binding intensity (ln)” value came to 7.01. For “TAATATTCCTTTTTAACACACATATGAACAAATAAA [CACACA_site153]” the value was 7.11.

Take “CACAAAAATGTAATCACACATATATATATATATATA [CACACA_site5818]”: the “gcPBM binding intensity (ln)” value was 9.46. For “TATGTGATAACACGCACACAAATGTATTTAATTTAT [CACACA_site5435]” the value was 6.85; for “AAAAAATGAAAATATTCCAAAATAGAGGGAAATGTA [GTGCAC_negctrl_site572]”, 6.96; for “ATTCTAATAATATATACACACACATATATATTTATA [CACACA_site8629]”, 7.23.

On to “TTATATTTATATATTTGTACGTATGTATATAATTCA [XGTACX_site2993]”, for which the “gcPBM binding intensity (ln)” value worked out at 7.17. For “CTTTTTTAAAATATTTAACACACAATTTTAATGCAT [CACACA_site9303]” the value was 7.07; for “AAAATTAGGAGACATGCATGTAACGATAAATATAAC [TGCATGCA_site148]”, 7.41. For “GTTACATACATATACACACACATATATATATATATA [CACACA_site901]” the value was 9.32; for “TAAATAATTCTTTTAGTACACACGAATAAGCAGATA [CACACA_site305]”, 7.14. For “TAATTTTTATTCAAGAGTACACAAAAGATAACTAAA [XGTACX_site4060]” the value was 7.27. Take “TAAAAAAAATCATTCACACATATATGAAAAAAAAAA [CACACA_site5546]”: the “gcPBM binding intensity (ln)” value was determined as 6.72. For “TAGATACCTATAGAAACATGCAATTGAATATATTTC [TGCATGCA_site402]” the value was 6.67; for “TTCTTACACGTTTGCACACTAAAATATATATATATA [CACACA_site434]”, 8.99; for “CTTGAAAGATTTTATTGTACTCATAAGATACATTTC [XGTACX_site3178]”, 7.01.

As for “TCATACAATATTAAATGTACATATATATATATATAT [XGTACX_site8828]”, the “gcPBM binding intensity (ln)” value is 8.99. For “ATATTAAAGCCTTTTTGTACATATAAATAAACATAG [XGTACX_site4667]” the value was 7.16; for “TATATATTATATATATGTACATAATTCCATGTTTAG [XGTACX_site3943]”, 7.16; for “AACTCTTAAAAATAAACATGCAAATATTTACCTTCT [TGCATGCA_site986]”, 6.95. For “ATTTTTTTTTTTTTTTTTCATTTTTTTTTTTTTTTT [CACACA_negctrl_site1204]”, the “gcPBM binding intensity (ln)” value turned out to be 7.39.

For the sequence “TTTTTTTTCTTTTTTTTTTTTTCAAAAGCTTATAAT [CACACA_negctrl_site1526]”, the “gcPBM binding intensity (ln)” value was 6.77.

For “TGTATAATCATATATACACACACATATATATATATA [CACACA_site8674]”, the “gcPBM binding intensity (ln)” value was 9.59.

On to “TTATATAAAAAAAAATGTACATATAATTGGTAAATT [XGTACX_site5180]”, for which the “gcPBM binding intensity (ln)” value was 6.99. For “GTGTATTTGGTGCGCACACACATGCAAAAAGAAATA [CACACA_site4768]” the value was 11.6; for “TTGAAAATAATATGAAGTACATTATTTTTTTTTAAT [XGTACX_site4499]”, 6.97.

On to “AAAAATATTTAAAATACACACATATATATAATATAT [CACACA_site2006]”, for which the “gcPBM binding intensity (ln)” value turned out to be 6.96. For “AAAACTTTCCATGTTTGTACATAAAATATAATAATT [XGTACX_site2716]” the value was 7.01; for “AAAATGAACAAACACACACACATATATATATATATA [CACACA_site2403]”, 9.27; for “AAAAATGTATGTATGGTGCAGTATTCATATCATTTT [GTGCAC_site9458]”, 10.2. For “TTATTGTGTAAGATGATTTTCTTCGTCACTTTGAAA [CACACA_negctrl_site1814]” the value was 6.66. “TCTTGAAAAAGAATCAATCGGTCGACAAAAAAAAAA [CACACA_negctrl_site1099]”: the “gcPBM binding intensity (ln)” value came out at 6.88. As for “ATATTCTTGTTTAATACACACTGTAGTATTATAGAT [CACACA_site6341]”, the “gcPBM binding intensity (ln)” value was 7.04. For “TTTTTTAATATTTATTAATTAAACTTTGTTTTTGTT [XGTACX_negctrl_site454]” the value was 6.66.
